About 4,300 (8.3%) of roughly 52,000 compounds were called active. Rule as the data show it: active = survival mostly below about 52% (no sharp cut-off); inactive = mostly above about 56%. The list shows a part of the results.
Each molecule was assayed on DeltatarO mutant (assay: growth inhibition of S. aureus wild type versus tarO mutant, primary screen, teichoic acid synthesis inhibitors, RN4220, OD600 (AID 463173)). Settings: OD600, 18 h, hits give low values, screened at 18.75 µg/mL (by protocol).

Compound	survival
COc1ccc(-n2ccn(CC(=O)NCc3ccc(C)cc3)c(=O)c2=O)cc1OC	inactive: 90%
COc1ccc(-n2c(=O)c3sc4ccccc4c3n(CC(=O)NC3CCCCC3)c2=O)cc1	inactive: 110%
CC(C)c1ccc(N2C(=O)N(Cc3ccccc3Cl)c3ccccc3S2(=O)=O)cc1	inactive: 86%
O=C(Nc1cc(C(F)(F)F)ccc1Cl)c1cnn(-c2ccccc2)c1-n1cccc1	active: 0%
COC(=O)Cc1c(C)nc2nc(-c3ccc(C)cc3)[nH]n2c1=O	inactive: 92%
CCOc1ccc(CCNC(=O)c2cnc3sc(N4CCCCC4)nn3c2=O)cc1	inactive: 69%
CCOc1cccc2sc(NC(=O)CS(=O)(=O)c3ccc(C)cc3)nc12	inactive: 96%
CCN(Cc1ccccc1)S(=O)(=O)c1ccc(F)c(C(=O)Nc2cc(C(F)(F)F)ccc2Cl)c1	active: 17%
COc1ccc(N2C(=O)CSC23C(=O)N(CC(N)=O)c2ccccc23)cc1 (stereo not given)	inactive: 70%
Cc1cccc(N(CC(N)=O)C2SC(=O)N(Cc3cccc(C(=O)O)c3)C2=O)c1 (stereo not given)	inactive: 66%
CCC(=O)Nc1nnc2n1CCS2	inactive: 91%
Cc1cc(Br)cc2c(C(=O)OCC(=O)c3ccccc3)cc(-c3ccccc3)nc12	inactive: 128%
Cc1c(-c2nnc(SCC(=O)Nc3ccc(Cl)cc3)o2)nnn1-c1ccc(F)cc1	inactive: 87%
COc1ccccc1N1CCN(C(=O)c2cnc(N3CCOCC3)c3ccccc23)CC1	inactive: 78%
Cc1cc(CN2CCN(c3ccc(F)cc3)CC2)cs1	inactive: 69%
O=S(=O)(NC1CCCCC1)c1cc(Cl)ccc1Cl	inactive: 96%
CCN1CCSc2ccc(C(=O)NCc3ccccc3Br)cc21	inactive: 62%
COC(=O)c1ccc([C@H]2Nc3ccc(S(=O)(=O)Nc4cccc(C)c4)cc3[C@H]3C=CC[C@H]32)cc1	inactive: 50%
N#C/C(=C\c1cn(CC(=O)NCC2CCCO2)c2ccccc12)C(=O)N1CCCC1 (stereo not given)	inactive: 112%
COCCNC(=O)CCCn1c(SCc2ccccc2Cl)nc2c(sc3ccccc32)c1=O	inactive: 129%
COc1ccc(-n2c(=O)c3c(c4cc(OC)ccc4n3C)n(CCC(C)C)c2=O)cc1	inactive: 87%
COc1ccccc1C1CC(=O)N(c2cccc(C(F)(F)F)c2)C2=C1C(=O)OC2 (stereo not given)	inactive: 56%
O=C(COc1ccc(Cl)cc1)NCC(c1ccco1)S(=O)(=O)c1ccc(Cl)cc1 (stereo not given)	inactive: 88%
Cc1cc(C)c2oc(-c3ccc(C)c(NC(=O)/C=C/c4ccco4)c3)nc2c1	active: 45%
COc1ccc(CNC(=O)c2cc3c(=O)n(C)c4ccccc4c3n2C)c(OC)c1	inactive: 50%
